Measured values taken from patent US20040053999A1, “Novel compounds and methods for synthesis and therapy” (priority 1997, published 2004).
Marks after values point to notes of the source that are not given here.

System: Influenza A/NWS/33 (H1N1)
Test: Influenza A (H1N1) infected mice, low dose oral administration study
Conditions: for Surv/total: p.o. bid x 5 days from 4 hr pre-virus; for Surv/total / % Survivors: 21 days; for % Survivors / Mean Surv. Time (days) / Mean SaO2 (%): p.o. bid x 5 days; for Mean Surv. Time (days): animals dying on or before day 21; for Mean SaO2 (%): mean of all assay times

Structure (SMILES) | Surv/total (0.1 mg/kg/day) | Surv/total (1 mg/kg/day) | Surv/total (10 mg/kg/day) | % Survivors (0.1 mg/kg/day) [%] | Mean Surv. Time (days) (0.1 mg/kg/day) | % Survivors (1 mg/kg/day) | Mean Surv. Time (days) (1 mg/kg/day) | Mean SaO2 (%) (1 mg/kg/day) | % Survivors (10 mg/kg/day) | Mean Surv. Time (days) (10 mg/kg/day) | Mean SaO2 (%) (10 mg/kg/day)
CCOC(=O)C1=C[C@@H](OC(CC)CC)[C@H](NC(C)=O)[C@@H](N)C1 [compound 262] | 2/8 | 7/8*** | 8/8*** | 25 | 11.1** days | 88*** % | 14.0** days | 87.4* % | 100*** % | >21.0** days | 88.1** %
CC(=O)N[C@H]1[C@H]([C@H](O)[C@H](O)CO)OC(C(=O)O)=C[C@@H]1N=C(N)N [GG167, 4-guanidino-2,4-dideoxy-2,3-dehydro-N-acetylneuraminic acid] | – | – | – | 0 | – | 25% | – | – | – | – | –
